Among all 350,000 compounds or so, about 9,900 (2.8%) were called active. Inconclusive results, whose numbers are uncertain, are shown with a selection of clear calls. Calls follow the shape of the dose curve; as a rule, active = well fitted activation curve with a large enough effect; inconclusive = small, poorly fitted or top-dose-only effect; inactive = no such curve, though single readings can be large or run the other way. No potency is given beside an inconclusive call; the fits are too rough.
Assay: A quantitative high throughput screen for small molecules that induce DNA re-replication in MCF 10a normal breast cells. Also: nearly all actives have a fitted effect of over 50% in size. As to activity, positive = re-replication: % of control where 0% means no effect.
Settings: MCF 10A DNA re-replication, Hoechst nuclear intensity, 48 h; activity, positive = re-replication: at 46.1 µM (top of the series)
Potency is read from the fitted curve at half-maximal effect; tags tell the direction and shape of the fitted curve.

SMILES	Potency	activity, positive = re-replication
CCOc1ccc2[nH]c(C(=O)N/N=C/c3cc(OC)c(OC)c(OC)c3)cc2c1	inconclusive [activator, single point]	
Cc1ccc(NC(=S)N(CCN2CCCCC2)Cc2ccco2)cc1C	inconclusive [activator, full curve, poor fit]	
CCC[n+]1c2ccccc2cc2ccccc21	active: 13 µM	
C=CCNc1nc(C)nc(OC)n1	inconclusive [activator, partial curve, poor fit]	
CCc1ccc(S(=O)(=O)Nc2cc(SCC(=O)O)c(O)c3ccccc23)cc1	inconclusive [activator, single point]	
CCN(CC)CCOC(=O)c1ccc(N/C=C(/C#N)c2nc(-c3ccc(OC)cc3)cs2)cc1	inconclusive [activator, single point]	
CSc1ncc(CN2CCCC(C(=O)c3ccc(C(C)(C)C)cc3)C2)cn1 (configuration not stated)	inconclusive [activator, single point]	
CCN(C(=O)COC(=O)c1c2c(nc3ccccc13)/C(=C/c1ccccc1)CC(C)C2)C1CCS(=O)(=O)C1 (configuration not stated)	inconclusive [activator, full curve, poor fit]	
CCCCc1ccc2nc(NC(=O)OC)[nH]c2c1	inconclusive [activator, full curve, poor fit]	
COc1ccc(Cl)cc1C(=O)Nc1ccc(NC(=O)C(C)C)cc1	inconclusive [activator, partial curve, poor fit]	
COc1cc(C2(c3ccc(O)c(OC)c3)C(=O)Nc3c(C)cc(Br)cc32)ccc1O	inconclusive [activator, single point]	
COc1ccc(NS(=O)(=O)c2cccc(C(=O)N3CCCCCC3)c2)cc1		inactive: 0.637%
Clc1ccc(CN(Cc2ccccc2)C(c2cccs2)c2nnnn2C2CCCC2)cc1 (configuration not stated)	inconclusive [activator, full curve, poor fit]	
CCOc1ccc(C(=O)NCc2ccco2)cc1	inconclusive [activator, partial curve]	
Cc1csc(CNC(=O)c2ccc(OC3CCN(CCc4ccccc4)CC3)cc2)n1	inconclusive [activator, partial curve, poor fit]	
O=C(N/N=C/c1cccc(O)c1)c1cc(C2CC2)nc2ccccc12	inconclusive [activator, single point]	
COc1cc2c(C(=O)NCc3ccccn3)cn(C)c(=O)c2cc1OC		inactive: -13.7%

— PubChem BioAssay AID624296 (National Center for Advancing Translational Sciences (NCATS), 2012)
